One assay deals with T1, human IGFBP-1 (human, UniProt P08833 26-259).
T1 sequence (looked up): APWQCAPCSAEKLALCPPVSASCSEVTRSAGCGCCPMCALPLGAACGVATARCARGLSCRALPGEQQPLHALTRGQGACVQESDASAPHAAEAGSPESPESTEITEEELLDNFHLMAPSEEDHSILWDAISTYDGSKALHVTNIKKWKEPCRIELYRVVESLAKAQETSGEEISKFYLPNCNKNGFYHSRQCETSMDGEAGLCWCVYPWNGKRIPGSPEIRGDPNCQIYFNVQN
Kind of assay: competitive phage ELISA. The method, then: (§1) E. coli cells (XL1-Blue, Stratagene) freshly transformed with phagemid vector were grown overnight in 5 mL 2YT medium (Sambrook et al., supra) in the presence of M13-VCS helper phage (Stratagene). Phage particles were harvested and resuspended in PBS buffer as described in Lowman, H. B., “Phage Display of Peptide Libraries on Protein Scaffolds,” in Cabilly, S. (ed.), Combinatorial Peptide Library Protocols (Humana Press Inc.: Totowa, N.J., 1998), pp. 249-264. Then phage concentrations were normalized to yield a maximal ELISA signal of 0.2-0.4 for each mutant (Lowman, in Cabilly, S. (ed.), supra). Threefold serial dilutions of soluble competitor were prepared on non-absorbent microtiter plates (Nunc, F, 96 wells) with binding buffer (0.5% TWEEN 20%/PBS) containing phage at the previously determined concentrations. […] After blocking, the plates containing immobilized target were washed with 0.05% TWEEN™/PBS buffer and subsequently incubated with 80 μl/well of the premixed phage-competitor solutions for 1 hour at room temperature. […] IC₅₀ values were determined by fitting the binding data to a generic saturation curve (Lowman, in Cabilly, S. (ed.), supra). At least two individual clones of each IGF-1 mutant were assayed. Numbers in Table XIII represent mean±standard deviation of individually assessed IC₅₀ values.

In assay [1] the target is recombinant human IGFBP-3 (human). Kind of assay: competitive phage ELISA. As to the method: as §1

Broadly, the IC50 is the concentration at which inhibition is half-maximal.

B1: des(1-2)-IGF-1 displayed on phage (ligand, bacteriophage M13)
chain: [letters of about 60 residues not shown]SGGGSGSGDFDYEKMANANKGAMTENADENALQSDAKGKLDSVATDYGAAIDGFIGDVSGLANGNGATGDFAGSNSQMAQVGDGDNSPLMNNFRQYLPSLPQSVECRPFVFSAGKPYEFSIDCDKINLFRGVFAFLLYVATFMYVFSTFANILRNKES
notes: range […]
Regarding B1, the half-inhibitory concentration (IC50) in the assay with human IGFBP-1 came to 5 nM; in assay [1] it was 0.53 nM.

B2: IGF-1 S1A displayed on phage (ligand, bacteriophage M13)
chain: [letters of about 80 residues with changes not shown]SGGGSGSGDFDYEKMANANKGAMTENADENALQSDAKGKLDSVATDYGAAIDGFIGDVSGLANGNGATGDFAGSNSQMAQVGDGDNSPLMNNFRQYLPSLPQSVECRPFVFSAGKPYEFSIDCDKINLFRGVFAFLLYVATFMYVFSTFANILRNKES
notes: range […]; G1S-A70V background
For the molecule B2, the half-inhibitory concentration (IC50) with human IGFBP-1 worked out at 5.2 nM; in assay [1], 0.91 nM.

B3: IGF-1 S1G displayed on phage (ligand, bacteriophage M13)
chain: [letters of about 80 residues with changes not shown]SGGGSGSGDFDYEKMANANKGAMTENADENALQSDAKGKLDSVATDYGAAIDGFIGDVSGLANGNGATGDFAGSNSQMAQVGDGDNSPLMNNFRQYLPSLPQSVECRPFVFSAGKPYEFSIDCDKINLFRGVFAFLLYVATFMYVFSTFANILRNKES
notes: range […]; S1G on G1S-A70V restores Gly1, leaving A70V
B3: the IC50 was 11.2 nM with human IGFBP-1 and 0.99 nM in assay [1].

(Values after patent US20090011988A1 (Genentech, published 2009).)
